In all, about 220,000 compounds went through this assay and about 5,700 (2.6%) were called active. Inconclusive means that the source gave no clear call. Such entries were picked first, then a sample of the others. The call rests on the fitted dose curve; in most records, active means well fitted inhibition curve with a large enough effect; inconclusive means small, poorly fitted or top-dose-only effect; inactive means no such curve, though single readings can be large or run the other way. A potency beside an inconclusive call is a rough fit, not a confirmed value.
Target: Lysine-specific demethylase 5B (Homo sapiens) (UniProt Q9UGL1)
Sequence of UniProt Q9UGL1 (Q9UGL1 whole entry, looked up): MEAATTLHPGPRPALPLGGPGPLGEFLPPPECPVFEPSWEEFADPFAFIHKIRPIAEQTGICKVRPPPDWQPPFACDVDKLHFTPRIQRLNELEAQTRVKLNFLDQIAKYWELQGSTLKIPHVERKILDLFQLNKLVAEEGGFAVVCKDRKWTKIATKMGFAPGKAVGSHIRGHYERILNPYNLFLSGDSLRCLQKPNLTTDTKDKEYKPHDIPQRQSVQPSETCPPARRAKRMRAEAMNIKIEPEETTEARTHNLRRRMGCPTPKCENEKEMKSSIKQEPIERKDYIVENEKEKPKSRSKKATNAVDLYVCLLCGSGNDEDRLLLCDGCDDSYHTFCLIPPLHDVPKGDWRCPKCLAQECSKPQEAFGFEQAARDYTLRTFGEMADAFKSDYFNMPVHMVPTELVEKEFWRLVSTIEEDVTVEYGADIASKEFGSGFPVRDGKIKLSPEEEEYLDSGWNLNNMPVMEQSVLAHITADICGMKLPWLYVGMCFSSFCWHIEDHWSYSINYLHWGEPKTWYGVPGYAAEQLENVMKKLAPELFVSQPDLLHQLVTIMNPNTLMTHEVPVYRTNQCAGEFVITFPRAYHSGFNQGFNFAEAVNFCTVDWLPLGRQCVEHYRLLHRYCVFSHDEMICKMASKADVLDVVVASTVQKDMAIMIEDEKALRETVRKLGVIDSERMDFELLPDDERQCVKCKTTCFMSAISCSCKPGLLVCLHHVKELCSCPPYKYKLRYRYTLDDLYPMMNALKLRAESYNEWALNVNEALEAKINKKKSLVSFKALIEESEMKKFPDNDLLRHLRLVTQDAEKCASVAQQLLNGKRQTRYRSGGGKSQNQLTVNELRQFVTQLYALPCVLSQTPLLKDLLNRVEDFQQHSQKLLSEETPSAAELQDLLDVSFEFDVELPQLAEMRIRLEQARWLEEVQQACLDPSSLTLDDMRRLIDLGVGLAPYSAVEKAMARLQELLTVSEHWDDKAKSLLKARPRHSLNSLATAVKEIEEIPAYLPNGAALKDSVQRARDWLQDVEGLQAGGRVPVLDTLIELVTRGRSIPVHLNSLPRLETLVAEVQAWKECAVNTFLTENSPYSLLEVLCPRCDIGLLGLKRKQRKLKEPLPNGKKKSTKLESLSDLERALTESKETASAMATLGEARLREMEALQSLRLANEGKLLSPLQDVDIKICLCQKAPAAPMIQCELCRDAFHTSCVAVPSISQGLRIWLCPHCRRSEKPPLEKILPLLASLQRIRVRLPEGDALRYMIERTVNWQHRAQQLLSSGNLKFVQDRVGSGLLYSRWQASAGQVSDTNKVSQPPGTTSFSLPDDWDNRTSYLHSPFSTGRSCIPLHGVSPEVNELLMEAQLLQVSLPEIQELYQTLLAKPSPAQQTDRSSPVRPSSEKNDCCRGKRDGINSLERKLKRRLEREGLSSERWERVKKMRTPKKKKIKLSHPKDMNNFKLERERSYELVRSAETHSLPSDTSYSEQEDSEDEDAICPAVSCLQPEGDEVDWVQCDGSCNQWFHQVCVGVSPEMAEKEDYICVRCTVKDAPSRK
Assay: Primary screen for KDM5B Histone Demethylases FDH-coupled qHTS; further: nearly all actives have a fitted effect of over 70% in size
Conditions: FDH-coupled NADH fluorescence (FDH is formaldehyde dehydrogenase); series mostly up to 57.7 µM
Summary of the method: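 Measured: NADH fluorescence change, 30 min, RT. System: KDM5BΔAP 200 nM final, H3K4me3 peptide, α-KG, Fe(II), ascorbate, NAD⁺ plus FDH, pH 7.5 HEPES. Compounds: titrated, 10 min pre-incubation with enzyme.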
Potency means the concentration at half of the fitted maximal effect; tags describe the fitted curve by direction and shape.

SMILES	Potency
O=C(CSc1nnc2[nH]c(=O)cc(-c3ccccc3)n12)Nc1ccc(OC(F)(F)F)cc1	inconclusive: 50.1 µM [inhibitor, single point]
O=C(O)c1cnc(/C=C/c2cc(Cl)c3c(c2)OCCCO3)s1	inconclusive: 31.6 µM [inhibitor, partial curve, poor fit]
COc1ccc(-c2cn3c(n2)sc2cc(C(=O)NC(C)C45CC6CC(CC(C6)C4)C5)ccc23)cc1 (stereo not given)	inconclusive: 31.6 µM [inhibitor, single point]
Nc1nc2c(s1)C(c1ccccc1Cl)CC(=O)N2 (stereo not given)	inconclusive: 17.8 µM [inhibitor, partial curve, poor fit]
O=C(Nc1cccc(C(F)(F)F)c1)c1nc2c(o1)CCN(Cc1ccccc1F)CC2	inconclusive: 22.4 µM [inhibitor, partial curve, poor fit]
CC(C)(C)N(NS(=O)(=O)c1ccc(F)cc1)c1ccccc1	inconclusive: 10 µM [inhibitor, partial curve, poor fit]
Cc1ccc(-c2cc(C(=O)N(C)CC(=O)NC3CC3)c3ccccc3n2)cc1	inconclusive: 39.8 µM [inhibitor, single point]
O=c1oc2cc(O)ccc2cc1-c1nc2ccccc2s1	inconclusive: 31.6 µM [inhibitor, partial curve, poor fit]
CCCN(C)C(=O)CC1Sc2ncccc2N(CCC)C1=O (stereo not given)	inconclusive: 28.2 µM [inhibitor, partial curve]
O=Cc1ccc(-c2cncc(C(=O)O)c2)cc1	active: 100 µM
CC(C)NC(=O)c1nc(-c2cccc(C(F)(F)F)c2)c2ccccn12	inconclusive: 56.2 µM [inhibitor, partial curve, poor fit]
COc1ncccc1-c1cnc2[nH]cc(CC(=O)Nc3ccccn3)c2c1	active: 35.5 µM
O=C(Nc1nc2ccccc2s1)c1cccc(S(=O)(=O)N2CCc3ccccc32)c1	inconclusive: 28.2 µM [inhibitor, partial curve, poor fit]
O=C(Nc1ccccc1)c1cnc2n1CCN(Cc1cccc(OC(F)(F)F)c1)CC2	inconclusive: 44.7 µM [inhibitor, partial curve, poor fit]
Cc1cccc(NNC(=O)C(=O)NNc2cccc(C)c2)c1	inconclusive: 15.8 µM [inhibitor, partial curve, poor fit]
COc1ccc(NCc2cccn2-c2nnc(N3CCOCC3)s2)cc1OC	inconclusive: 17.8 µM [inhibitor, partial curve, poor fit]
O=C(N[C@@H]1CCN(Cc2ccc3nsnc3c2)C[C@H]1O)c1cnccn1	inconclusive: 14.1 µM [inhibitor, partial curve, poor fit]
COc1nccnc1NC1CCN(C(=O)c2ccccc2)CC1	active: 31.6 µM
CC(C)(CC(=O)O)CC(=O)N1Cc2[nH]cnc2C[C@H]1c1nc(-c2ccc3c(c2)OCO3)no1	inconclusive: 17.8 µM [inhibitor, partial curve, poor fit]
Cc1ncccc1C(=O)N1CCC(Oc2cnc3c(ccn3-c3cncnc3)c2)CC1	inconclusive: 35.5 µM [inhibitor, single point]

SMILES	Potency
O=c1c2cnc(N3CCc4ccccc4C3)nc2ccn1-c1ccccc1F	inactive
CCN1CCSc2ccc(C(=O)NCc3ccc(F)cc3)cc21	inconclusive: 28.2 µM [inhibitor, partial curve, poor fit]
CCOc1cc2c(cc1OCC)C(CC(=O)OC)N(C(=O)Nc1cc(OC)ccc1OC)CC2 (stereo not given)	inconclusive: 39.8 µM [inhibitor, single point]
Cc1ccccc1-c1nc(N2CCOCC2)cc2c1CN(Cc1cnn(C)c1)C2=O	active: 39.8 µM
COc1ccc(-c2cc(C(=O)NC(C)(C)C)c3ccccc3n2)cc1	inconclusive: 25.1 µM [inhibitor, partial curve, poor fit]
Cc1ccc(C(=O)N2CCN(c3cc(-c4ccccc4)[nH]n3)CC2)cc1	inconclusive: 25.1 µM [inhibitor, single point]
O=C1CC2(CCN(c3cncc(C(=O)N4CCCCC4)n3)C2)C(=O)N1 (stereo not given)	active: 28.2 µM
Cc1ccc(C)c(N2CCN(C(=O)CCS(=O)(=O)c3ccc4c(c3)oc(=O)n4C)CC2)c1	inconclusive: 31.6 µM [inhibitor, single point]
O=C(O)CN(CC(=O)O)C1CCCCC1N(CC(=O)O)CC(=O)O (stereo not given)	inconclusive: 10 µM [inhibitor, partial curve, poor fit]
COc1ccc2c(c1)c(=O)c(S(=O)(=O)c1ccc(Cl)cc1)cn2Cc1cc(C)ccc1C	inconclusive: 17.8 µM [inhibitor, partial curve, poor fit]
CN1CCN(C(=O)Cn2ccc3c(Cl)cccc32)CC1	inactive
O=C(COc1ccccc1)N1CCC2(CC1)NC(=O)N(c1cccc(F)c1)N2	inactive
COc1ccc(S(=O)(=O)NCCc2sc(-c3cccnc3)nc2C)cc1OC	inconclusive: 17.8 µM [inhibitor, partial curve, poor fit]
CNS(=O)(=O)c1cc(NC(=O)c2cccc(OCc3c(C)noc3C)c2)ccc1C	inactive
CCOC(=O)Nc1ccc2c(CN3CCC(C(N)=O)CC3)cc(=O)oc2c1	inconclusive: 20 µM [inhibitor, partial curve, poor fit]
CN(C)C[C@@H]1CN(Cc2ccccc2)C[C@H]1NS(=O)(=O)c1cccnc1	inactive
CSCC[C@@H]1NC(=O)c2cc(NC(=O)c3cccc4c3ccn4C)ccc2NC1=O	inconclusive: 31.6 µM [inhibitor, single point]
CC(=O)c1c(C)n(S(=O)(=O)c2ccc(Cl)cc2)c2ccc(NS(=O)(=O)c3ccc(Cl)cc3)cc12	inconclusive: 22.4 µM [inhibitor, partial curve, poor fit]
Cn1c(COc2ccc(Cl)cc2Cl)n[nH]c1=S	inactive
Cc1ccc2c(C(=O)NCc3cccc(Cl)c3)cc(NC(=O)C(C)C)cc2n1	active: 25.1 µM
